Reference: ChEMBL document CHEMBL4888484, “Replenishing the malaria drug discovery pipeline: Screening and hit evaluation of the MMV Hit Generation Library 1 (HGL1) against asexual blood stage Plasmodium falciparum ,using a nano luciferase reporter read-out” (2022)
About 540 (0.36%) of roughly 150,000 compounds showed an effect of 50% or more. Some of the results follow.

Tested on: Plasmodium falciparum
Assay: Primary screen in NF54 nanoGlo assay, in single point, at 2uM, 72h; a lower Z score goes with more inhibition
Type: functional, Erythrocyte
Conditions: timepoint 72 hour

| Structure (SMILES) | % Inhibition [%] | Z score |
| --- | --- | --- |
| O=C(NC1CCN(c2nccn3cnnc23)C1)C1CC(=O)N(c2ccccc2)C1 (configuration not stated) | -16 | 2.01 |
| CC(C)(C)OC(=O)NCc1cccc(NCc2cscn2)c1 | -1 | 0.14 |
| COc1cccc(Nc2cc(C(=O)N3CCCCC3)nc3ccc(C)cc23)c1 | 3 | -0.3 |
| CN(CCc1ccc(Br)cc1)C(=O)NCc1cccnc1 | -6 | 1 |
| c1nc(CNc2ccc(Cc3nnc4n3CCCCC4)cc2)cs1 | -9 | 1.07 |
| COc1cccc(-c2nn(-c3nc(-c4ccccc4)cc(C(F)(F)F)n3)c(-c3cccc(OC)c3)c2Cl)c1 | 38 | -3.81 |
| CS(=O)(=O)c1ccc(C(=O)N2CC[C@H]3CC[C@H](O)[C@H]32)cc1 | -5 | 0.5 |
| Cc1nn(C)c(C)c1S(=O)(=O)N1C[C@@H]2[C@H]3CC[C@H](CC3)[C@@H]2C1 | 4 | -0.81 |
| CCn1nc(C)c(CN2CCC(CNC(=O)[C@H]3CCOC3)CC2)c1C | -7 | 0.71 |
| Cc1nsc(C)c1C(=O)N1CCC(C)C(n2ccnc2)C1 (configuration not stated) | -8 | 0.96 |
| N#Cc1c2n(c(=O)n(C[C@H](O)COc3ccccc3)c1=O)CCC2 | -26 | 2.39 |
| CCc1ccc(O)c(C(=O)N[C@@H](C)Cn2cncn2)c1 | -12 | 1.18 |
| CCc1onc(C)c1CN[C@H](c1cnn(C)c1)C1(CO)CCC1 | -8 | 1.53 |
| CO[C@@H](CNC(=O)NC(C)C)c1ccccc1Cl | 20 | -2.57 |
| CCCCN1CCN([C@@H](C(=O)N2CCNC(=O)CC2)c2ccccc2)C(=O)C1=O | -11 | 2.13 |
| C[C@@H](CC#N)N1CCC(c2ccsc2)CC1 | -2 | 0.3 |
| CCN(CC)[C@@H](CNc1ccc2nnc(C3CC3)n2n1)c1ccco1 | 4 | -0.56 |
| Cc1cccc(N2CCN3c4cc(Cl)ccc4CC4(C(=O)CCCC4=O)[C@@H]3C2)c1C | -2 | 0.35 |
| C[C@H]1COCCN1C(=O)NCCc1csc(N2CCCC2)n1 | 4 | -0.3 |
| Cc1csc(C(=O)NC2CC(O)C(CO)C2)c1 (configuration not stated) | -1 | 0.19 |
| Cc1ccc(C)c(S(=O)(=O)NCCNc2ccc(Nc3ccncc3)nn2)c1 | 47 | -2.68 |
| O=C(CN1CCC(c2ccccn2)CC1)NCC1CC1 | 2 | -0.43 |

| Structure (SMILES) | % Inhibition [%] | Z score |
| --- | --- | --- |
| Cc1noc([C@]23CN(CCO)CC[C@H]2CN(CCc2ccccc2)C3)n1 | -1 | 0.2 |
| COC(=O)[C@@H]1CN(c2nc3c(s2)c(C)nn3C)CCN1C | -14 | 2.55 |
| O=C(CCc1nnc(Cc2cccc(C(F)(F)F)c2)o1)NCc1ccccc1 | -4 | 0.49 |
| CC(C)n1nccc1[C@H]1OCC[C@@H]1NC(=O)C(C)n1cnc2c(N)ncnc21 (some centres not stated) | 2 | -0.27 |
| CCn1ncnc1[C@@H](Nc1nccc(C)n1)C1CC1 | 14 | -1.78 |
| CC(C)(C)n1ncnc1NC(=O)NC1CCCC1 | -6 | 0.92 |
| Cn1cc(-c2ncc(C(=O)N3CCC(c4ccnn4C)CC3)s2)cn1 | -4 | 0.72 |
| COc1ccc([C@H]2CC(=O)Nc3ncn(-c4ccc(C(F)(F)F)cc4)c32)cc1O | 5 | -0.57 |
| CNC(=O)c1ccc(Cn2ccnc2-c2ncc[nH]2)cc1 | -3 | 0.59 |
| COc1c(C(=O)NC2CCC(O)(c3cccc(F)c3)CC2)cnn1C (configuration not stated) | 5 | -0.88 |
| CC(=O)N1CCC([C@@H]2CN(Cc3cc(F)c(F)cc3F)C[C@H]2CO)CC1 | -8 | 0.93 |
| O=C(O)c1cccnc1N1CCN(Cc2ccc(F)c(F)c2)[C@@H](CCO)C1 | -12 | 1.2 |
| C[C@H]1CCc2sc(C(=O)N3CCC(c4ccnc(N)n4)CC3)cc2C1 | 10 | -1.31 |
| C[C@H]1CN(Cc2ccc(OCCCn3ccnc3)cc2)CCCO1 | -13 | 1.38 |
| Cc1cccc(C(=O)NCCc2cccs2)n1 | 9 | -1.02 |
| Cc1ccccc1C(NS(=O)(=O)CC1CCCCO1)C1CC1 (configuration not stated) | 0 | -0.03 |
| CC(=O)/C(=N/Nc1ccc(Cl)cc1)Nc1ccc(Br)cc1 | -11 | 1.54 |
| CCC(=O)N1CCN(C(=O)c2ccn(C)c(=O)c2)C1 | 5 | -0.58 |
| Cc1nn(C)c(C)c1CN1CC(C)C1C (configuration not stated) | -12 | 1.16 |
| CCc1ccc([C@@H](NCC(=O)N2CCNC2=O)C(C)(C)C)o1 | 4 | -0.59 |
| CC(C)(CO)NC(=O)[C@H]1CCN(c2ccccc2F)C1 | -6 | 0.92 |
| Cc1noc(C)c1CCC(=O)N1CCC[C@H](Oc2cccnn2)C1 | 12 | -1.42 |

| Structure (SMILES) | % Inhibition [%] | Z score |
| --- | --- | --- |
| O=C(c1ccc(F)cc1Cl)N1C2CCC1CC(n1ccnc1)C2 (configuration not stated) | -8 | 0.96 |
| CC(C)n1ccc(NC(=O)N2CCN(C(=O)Cc3ccccc3)CC2)n1 | -17 | 3.01 |
| CCNC(=O)c1nc(C(=O)NCc2ccco2)cs1 | 29 | -4.22 |
| CCOc1ncccc1C(=O)Nc1cc(S(=O)(=O)N2CCOCC2)ccc1N1CCCC1 | -14 | 1.88 |
| Cc1cc(C)nc(/C=C/NC(=O)c2ccco2)c1 | -4 | 0.74 |
| CCc1noc([C@H](C)n2ccnc2-c2cnc(-c3ccco3)nc2)n1 | -7 | 0.72 |
| Cc1nc(-c2c(-c3ccccc3)ncn2CC2(CO)CCOCC2)c[nH]1 | -8 | 1.42 |
| CC[C@H](NS(C)(=O)=O)c1ccc(C)c(C)c1 | -7 | 1 |
| O=C(CCC(F)(F)F)N1CCC2(CCC(=O)N(Cc3ccncc3)C2)CC1 | -13 | 2.17 |
| O=S(=O)(c1ccc(F)c(Cl)c1)N1CC(n2nccn2)C1 | 5 | -0.93 |
| Cc1cccc(N2CC[C@@H](C(=O)NCCc3ccccc3)C2=O)c1C | -2 | 0.18 |
| CCCCN(C)S(=O)(=O)Nc1ccccc1OC | -9 | 1.37 |
| CCOc1ccccc1NC(=O)CC(=O)N[C@H](c1ccncc1)c1ccc(C)cc1 | 17 | -2.28 |
| COCCNC(=O)[C@H]1C[C@H](Oc2ccccc2)CN1Cc1ccncc1 | -11 | 2.1 |
| CN(C)C(=O)NCc1cc2n(n1)CCN(c1nc(N)nc3[nH]ncc13)C2 | -7 | 0.92 |
| Cc1c(C(=O)N2CCO[C@H](c3ncon3)C2)oc2c(Cl)cccc12 | -11 | 1.1 |
| CCn1ccc(C(=O)N2CC[C@H]2c2cccc(OC)c2)cc1=O | -3 | 0.48 |
| O=C(NCc1cc(C2CC2)ncn1)c1cccnc1 | 13 | -1.67 |
| O=C(Nc1ccc2c(c1)OCO2)NC1CCCCCC1 | 1 | -0.19 |
| O=C(NC1CCc2nccn2C1)C1CC1c1c(F)cccc1F (configuration not stated) | -10 | 1.3 |
| O=C(NCCCc1ccccc1)c1ccc(CN2CC(=O)N3CCCC[C@H]3C2=O)cc1 | -8 | 1.06 |
| CCOc1cccc(CCNC(=O)N2CCS(=O)(=O)C[C@@H]2C)c1 | 2 | -0.33 |

| Structure (SMILES) | % Inhibition [%] | Z score |
| --- | --- | --- |
| O=C(NC1CCCC1)N1CCCCC[C@@H]1CN1CCCC1 | -1 | 0.16 |
| CCS(=O)(=O)c1cccc(NCc2cn3cccnc3n2)c1 | -12 | 1.08 |
| O=C(NCc1cccnc1-n1ccnc1)c1cnc2ccccn12 | -10 | 1.96 |
| Cn1nncc1CN1CCCC1C1CCCN1Cc1ccccc1 (configuration not stated) | 1 | -0.15 |
| CCOCc1nc(-c2ncc(C)cn2)no1 | -8 | 1 |
| Cc1ccc(S(=O)(=O)N2CC3(C2)CC(C)(C)C3)cc1 | 1 | -0.1 |
| Cc1ccc([C@H]2c3ccccc3CCN2C(=O)c2ccc(F)cc2)cc1 | -3 | 0.46 |
| CC(C)C(=O)Nc1c(C(=O)N2CCCCCC2)oc2ccccc12 | -5 | 0.52 |
| NC(=O)C1CCN(C(=O)c2cc3c(ccc4ccccc43)[nH]2)CC1 | -18 | 2.27 |
| c1cncc(CN(Cc2ccsc2)Cc2cccn2-c2nccs2)c1 | -10 | 1.6 |
| CC(=O)Nc1cccc(NCc2noc(-c3ccccc3)n2)c1C | 1 | -0.2 |
| Cc1ccc2c(c1)Oc1ccc(S(=O)(=O)N3CCC(C)CC3)cc1C(=O)N2 | -14 | 2.03 |
| COc1ccc(-c2noc(CCn3c(=O)[nH]c4cc5c(cc4c3=O)OCO5)n2)c(OC)c1 | 29 | -0.54 |
| CN1C(=O)[C@]2(CCN(C(=O)CCc3ccccc3)C2)c2ccccc21 | -4 | 0.57 |
| CCn1cc(-c2nncn2-c2cc(C)nn2C)c(C)n1 | -17 | 2.05 |
| Cc1nc(CC(=O)Nc2nc(-c3ccc4c(c3)OCO4)cs2)cs1 | -7 | 0.91 |
| Cn1ccc(C(=O)Nc2cc(Cc3ccccc3)ccc2O)cc1=O | -7 | 1.46 |
| CS(=O)(=O)CC(=O)N1CCC(c2ccccc2)=N1 | 13 | -1.72 |
| COc1ccc(/C=C/CN2CC[C@H](NC(=O)c3ccncc3)[C@@H](O)C2)cc1 | -23 | 2.1 |
| C[C@@H](C(=O)Nc1ncccn1)N1CCC(c2nc3ccccc3s2)CC1 | 1 | -0.19 |
